# Among all 310,000 compounds or so, about 14,000 (4.5%) showed an effect of 50% or more. The effect is printed as a negative number. The list shows a part of the results.
# Target: human ether-à-go-go-related gene (hERG) potassium channel (human, UniProt Q12809)
# Test: primary screen, population patch clamp on CHO cells stably expressing hERG
# 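Also: peak tail current of the secondary pulse compared with the same well before compound.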
# Sequence of human ether-à-go-go-related gene (hERG) potassium channel (Q12809 whole entry, looked up): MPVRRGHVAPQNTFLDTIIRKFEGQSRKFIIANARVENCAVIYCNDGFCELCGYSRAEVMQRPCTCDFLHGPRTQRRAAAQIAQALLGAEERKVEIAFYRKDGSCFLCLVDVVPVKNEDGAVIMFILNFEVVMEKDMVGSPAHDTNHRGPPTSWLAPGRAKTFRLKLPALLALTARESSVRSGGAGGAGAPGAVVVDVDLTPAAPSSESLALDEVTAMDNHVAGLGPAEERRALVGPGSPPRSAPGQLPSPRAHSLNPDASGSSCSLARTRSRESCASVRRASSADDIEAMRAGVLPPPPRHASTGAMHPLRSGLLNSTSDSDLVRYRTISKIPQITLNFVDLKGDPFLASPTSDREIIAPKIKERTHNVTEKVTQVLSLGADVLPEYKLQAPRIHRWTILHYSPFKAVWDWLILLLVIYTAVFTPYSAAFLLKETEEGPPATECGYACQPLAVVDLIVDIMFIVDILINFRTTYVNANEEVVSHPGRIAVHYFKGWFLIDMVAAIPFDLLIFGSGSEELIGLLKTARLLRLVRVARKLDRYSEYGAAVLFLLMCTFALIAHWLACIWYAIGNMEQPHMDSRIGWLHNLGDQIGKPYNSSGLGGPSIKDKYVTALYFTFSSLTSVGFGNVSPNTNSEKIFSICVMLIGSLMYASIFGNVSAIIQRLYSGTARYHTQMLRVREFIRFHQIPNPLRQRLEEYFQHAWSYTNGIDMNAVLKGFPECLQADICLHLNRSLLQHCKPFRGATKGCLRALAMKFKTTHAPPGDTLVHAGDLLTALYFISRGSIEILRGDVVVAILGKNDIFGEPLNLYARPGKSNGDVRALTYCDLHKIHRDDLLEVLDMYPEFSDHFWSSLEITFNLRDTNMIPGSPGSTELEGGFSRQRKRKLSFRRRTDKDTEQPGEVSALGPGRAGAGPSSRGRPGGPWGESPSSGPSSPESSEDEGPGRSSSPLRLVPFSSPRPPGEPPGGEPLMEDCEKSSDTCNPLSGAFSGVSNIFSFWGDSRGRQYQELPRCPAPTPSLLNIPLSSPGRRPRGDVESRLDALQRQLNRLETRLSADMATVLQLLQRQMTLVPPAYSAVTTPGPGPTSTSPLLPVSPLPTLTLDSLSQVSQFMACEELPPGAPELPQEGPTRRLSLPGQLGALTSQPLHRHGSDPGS
row,SMILES,"hERG current change (%, negative = inhibition) at 10uM [%]"
1,O=C1CC(c2ccco2)CC2=C1C1c3ccccc3C(=O)N1c1ccccc1N2 (stereo not drawn),1.37
2,O=C(CN1C(=O)C2CC=CCC2C1=O)Nc1ccc(OC(F)(F)F)cc1 (stereo not drawn),-14.2
3,CN1C(=O)N(c2ccc(Cl)cc2)C(C)(O)CC1(C)C (stereo not drawn),5.75
4,CCc1ccc2[nH]c(=O)c(C(c3nnnn3Cc3ccc(OC)cc3)N3CCOCC3)cc2c1 (stereo not drawn),-19.1
5,CN(CC(=O)N1CCN(Cc2ccccc2)CC1)C(=O)Cc1cccc2ccccc12,-19.1
6,c1ccc(-n2nnnc2NCCCN2CCOCC2)cc1,1.4
7,O=C(NCCO)c1scc2c1OCCO2,16.6
8,CC(C)OP(=O)(OC(C)C)C(O)c1cccnc1 (stereo not drawn),17.3
9,COc1cccc(CN2CCN(C(=O)c3ccc(-c4ccccc4)cc3)CC2)c1OC.O=C(O)C(=O)O,-5.41
10,Fc1ccc(-c2csc(NC(=S)Nc3ccccc3)n2)cc1,32.8
11,CCOc1ccc(C(=O)N/N=C(/C)C2C(=O)c3ccccc3C2=O)cc1,9.02
12,COCCNC(=O)c1onc(CSc2cc(C)cc(C)c2)c1C(=O)NCCOC,-7.73
13,COc1cccc(CNC(=O)CCNS(=O)(=O)c2ccc3c(c2)oc(=O)n3C)c1,5.43
14,Cc1cc(C)n(CCNS(=O)(=O)c2ccc(C)c(C)c2)n1,11.5
15,Fc1ccc(C(CCCn2nnc(-c3cccnc3)n2)c2ccc(F)cc2)cc1,-16.5
16,CC(OC(=O)Nc1cccc(Cl)c1)C(=O)O (stereo not drawn),21.2
17,O=C(/C=C/Nc1ccc(S(=O)(=O)Nc2ncccn2)cc1)c1cccs1,4.26
18,C=CCS(=O)(=O)N1CCCC(C(=O)c2cccc(Cl)c2)C1 (stereo not drawn),5.16
19,Cc1ccccc1-c1nc(CN2CCC(C(=O)O)CC2)c(C)o1,-18.6
20,CCN(CC)CCN1C(=O)C(=O)/C(=C(/O)c2ccc3c(c2)CC(C)O3)C1c1ccc(OC)cc1 (stereo not drawn),-3.73
21,Cc1ccc(S(=O)(=O)N(C)C)cc1NC(=O)COC(=O)C1CCN(S(=O)(=O)c2cccs2)CC1,-81.9
22,O=C(CSc1nccn1Cc1ccccc1)Nc1ccccc1,12.4
23,CCCc1cc(=O)oc2cc(OCC(=O)NCCCN3CCCC3=O)ccc12,0.636
24,COc1cccc(CN2CCN(Cc3cc(OC)c(OC)cc3OC)CC2)c1.O=C(O)C(=O)O,-29.1

# From paper PMC4336329 (PLoS ONE, 2015)
